Here are results for 46 molecules from publication PMC4336329 (PLoS ONE, 2015).

Among all 310,000 compounds or so, about 2,200 (0.71%) showed an effect of 50% or more. Effects have a minus sign here. The list shows a part of the results.

Sequence of human ether-à-go-go-related gene (hERG) potassium channel (Q12809 whole entry, looked up): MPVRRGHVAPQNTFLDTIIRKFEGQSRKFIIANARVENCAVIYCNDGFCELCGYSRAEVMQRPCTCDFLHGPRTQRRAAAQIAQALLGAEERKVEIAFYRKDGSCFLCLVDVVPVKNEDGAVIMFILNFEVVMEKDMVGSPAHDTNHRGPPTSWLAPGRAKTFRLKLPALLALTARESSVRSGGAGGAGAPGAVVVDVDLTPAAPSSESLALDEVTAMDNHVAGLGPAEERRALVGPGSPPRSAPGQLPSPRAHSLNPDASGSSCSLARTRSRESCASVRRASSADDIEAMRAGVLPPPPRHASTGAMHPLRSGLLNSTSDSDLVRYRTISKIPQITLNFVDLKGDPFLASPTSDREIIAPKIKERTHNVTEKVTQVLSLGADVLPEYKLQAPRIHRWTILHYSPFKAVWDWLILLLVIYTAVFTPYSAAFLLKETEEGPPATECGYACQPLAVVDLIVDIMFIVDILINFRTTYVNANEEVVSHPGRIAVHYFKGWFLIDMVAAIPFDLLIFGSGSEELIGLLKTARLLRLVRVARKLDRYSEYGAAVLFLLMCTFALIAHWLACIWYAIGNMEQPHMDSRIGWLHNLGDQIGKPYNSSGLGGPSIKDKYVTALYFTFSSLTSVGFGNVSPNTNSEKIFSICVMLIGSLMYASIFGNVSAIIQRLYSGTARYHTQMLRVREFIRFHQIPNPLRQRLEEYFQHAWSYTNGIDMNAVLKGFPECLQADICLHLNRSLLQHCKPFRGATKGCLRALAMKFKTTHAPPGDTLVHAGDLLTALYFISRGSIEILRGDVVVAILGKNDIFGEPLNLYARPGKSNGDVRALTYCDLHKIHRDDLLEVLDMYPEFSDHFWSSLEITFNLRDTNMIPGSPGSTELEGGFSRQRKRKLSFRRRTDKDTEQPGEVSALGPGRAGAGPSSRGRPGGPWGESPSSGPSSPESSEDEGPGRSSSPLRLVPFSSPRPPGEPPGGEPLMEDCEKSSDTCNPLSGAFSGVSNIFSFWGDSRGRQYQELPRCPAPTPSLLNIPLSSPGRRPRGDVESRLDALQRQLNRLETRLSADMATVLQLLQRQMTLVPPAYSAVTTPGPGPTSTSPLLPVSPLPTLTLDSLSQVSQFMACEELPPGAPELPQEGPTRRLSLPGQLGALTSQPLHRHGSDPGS

The assay has as its target human ether-à-go-go-related gene (hERG) potassium channel (human, UniProt Q12809). The experiment in a line: primary screen, population patch clamp on CHO cells stably expressing hERG.
Consider `N#C/C(=C1\C(=O)Nc2c(Cl)cc(Cl)cc21)c1nnc2n1CCCCC2`, for which the “hERG current change (%, negative = inhibition) at 1uM” value worked out at 8.09%.
The value for `CCOC(=O)c1ccc(NC(=O)C2CCN(S(=O)(=O)c3c(C)nn(C)c3C)CC2)cc1` was 0.89%.
Regarding `C=CCNC(=S)N1CCN(c2cccc(C(F)(F)F)c2)CC1`, the “hERG current change (%, negative = inhibition) at 1uM” value came to 1.47%.
With `Cc1ccc(OCCn2ccc(=O)[nH]c2=O)cc1C` the figure was -0.181%; with `CC(=O)Nc1ccc(S(=O)(=O)Nc2ccc(N3CCOCC3)c(F)c2)cc1`, -1.81%.
On to `O=C(CSc1n[nH]c(-c2ccccc2)n1)Nc1ccc(N2CCOCC2)cc1`, for which the “hERG current change (%, negative = inhibition) at 1uM” value is 15%.
The value for `Cc1ccc(OCc2ccc(C(=O)N3CCCC3)o2)cc1C` was -8.55%; that for `CCS(=O)(=O)c1ccccc1C(=O)NC1CCCc2ccccc21` (stereo not shown) was 16.5%.
As for `OCC[C@H]1C[C@@H](O)[C@H](O)[C@]2(CCCCO2)O1`, the “hERG current change (%, negative = inhibition) at 1uM” value was found to be 9.2%.
As for `C=CCc1cccc2cc(C(=O)NC(C)(C)C)c(=O)oc12`, the “hERG current change (%, negative = inhibition) at 1uM” value is 8.38%.
Regarding `O=C(Nc1ccc2c(c1)OCO2)N1CCN(c2ccc(F)cc2)CC1`, the “hERG current change (%, negative = inhibition) at 1uM” value stood at 4.01%.
With `CCOC(=O)C(=O)Nc1nnc(Cc2ccc(OC)c(OC)c2)s1` the figure was 8.39%.
On to `CCOCCCNC(=O)C1CCN(C(=O)N(C)C)CC1`, for which the “hERG current change (%, negative = inhibition) at 1uM” value came to 16.1%.
`Cc1ccc(Nc2nc3c(c(=O)[nH]c(=O)n3C)n2Cc2ccc(F)cc2)cc1`: the “hERG current change (%, negative = inhibition) at 1uM” value is 19%.
`CC(=O)NC(CCS(C)(=O)=O)C(=O)Nc1nc(C)cs1` (stereo not shown): the “hERG current change (%, negative = inhibition) at 1uM” value is on record as 7.95%.
With `Cc1cc2cc(CNC(=O)CCC(=O)O)ccc2[nH]1` the figure was -10.2%; with `CCCCN1CC2=C(C1=O)C(c1ccc(O)cc1)NC(=O)N2C` (stereo not shown), 0.787%.
With `Cc1cccc(C)c1NC(=O)CNC(=O)c1cncc(Br)c1`, the “hERG current change (%, negative = inhibition) at 1uM” value is given as 17.3%.
`COc1ccc(CC(NC(C)=O)C(=O)NC2CCN(C(=O)c3ccc(OC)c(OC)c3)CC2)cc1OC` (stereo not shown): the “hERG current change (%, negative = inhibition) at 1uM” value was 10.9%.
The value for `CCN1C(=O)CSC1=NC12CC3CC(CC(C3)C1)C2` was 11.4%; that for `CCOC(=O)c1ccc(NC(=O)COC(=O)Cc2csc(-c3ccccc3)n2)cc1` was 7.2%; that for `O=C1Nc2ccc(Cl)cc2[C@@](C#CC2CC2)(C(F)(F)F)O1` was 21.8%.
Consider `CCCc1nnc(NC(=O)c2nc(S(=O)(=O)Cc3cccc(C)c3)ncc2Cl)s1`, for which the “hERG current change (%, negative = inhibition) at 1uM” value was found to be 21%.
On to `CN(C)CCN1C(=O)C(=O)/C(=C(/O)c2ccccc2)C1c1ccccc1F` (stereo not shown), for which the “hERG current change (%, negative = inhibition) at 1uM” value was determined as 2.27%.
The value for `Cc1cccc(NC(=O)Cn2c(=O)n(C)c3ccccc32)c1` was 16.3%.
With `CCOc1ccc(NC(=O)CN(C)C(=O)c2c(C)noc2C)cc1OCC` the figure was 9.87%; with `COC(=O)[C@@H]1CCCN1Cc1c(C(=O)N2CCCCC2)nc2c(C)cccn12`, -4.73%; with `C/C(=N\NC(=O)CNc1cccc(C(F)(F)F)c1)c1cccs1`, 15.2%.
Take `CC1CCCCC1NC(=O)CCNC(=O)N1CC(=O)Nc2ccccc21` (stereo not shown): the “hERG current change (%, negative = inhibition) at 1uM” value was found to be 11%.
Consider `CCCCCN(C(=O)COC(=O)CSc1ccc([N+](=O)[O-])cc1)c1c(N)n(CCCC)c(=O)[nH]c1=O`, for which the “hERG current change (%, negative = inhibition) at 1uM” value is on record as -12.6%.
As for `CC1(C)CC(=O)C=C(NCC(=O)O)C1`, the “hERG current change (%, negative = inhibition) at 1uM” value worked out at 9.12%.
In the case of `O=S(=O)(NC1CCCCC1N1CCN(c2ccccc2F)CC1)c1ccccc1` (stereo not shown), the “hERG current change (%, negative = inhibition) at 1uM” value turned out to be 14%.
Take `Cc1ccccc1CNC(=O)C1CCC(=O)N(C2CC2)C1` (stereo not shown): the “hERG current change (%, negative = inhibition) at 1uM” value came out at 4.81%.
For the molecule `COc1ccc(C(=O)CN2C(=O)NC(C)(c3ccc(C)cc3)C2=O)cc1OC` (stereo not shown), the “hERG current change (%, negative = inhibition) at 1uM” value amounted to 13.7%.
As to `COc1ccccc1NC(=O)C(=O)/C=C(\O)c1ccccc1`, the “hERG current change (%, negative = inhibition) at 1uM” value was determined as 13.8%.
Turning to `CC(=O)c1ccc(OC(=O)Cc2cccc3ccccc23)cc1`, the “hERG current change (%, negative = inhibition) at 1uM” value is reported as 12.8%.
Consider `CC(C)N1CSC(=S)N(Cc2ccccc2)C1`, for which the “hERG current change (%, negative = inhibition) at 1uM” value stood at 14.7%.
The value for `Nc1cc(-c2ccccc2)n2c(n1)nc1ccccc12` was 1.6%.
Regarding `COc1cccc(-c2ccc(NC(=O)C3CCCN(Cc4cnc(N(C)C)s4)C3)cc2)c1` (stereo not shown), the “hERG current change (%, negative = inhibition) at 1uM” value is given as 10%.
Regarding `Cc1ccccc1NC(=O)c1nc[nH]c1C(=O)NCc1ccccc1`, the “hERG current change (%, negative = inhibition) at 1uM” value came out at 1.14%.
With `C/C(=N\S(=O)(=O)c1ccc(C)cc1)N1CCCCC1` the figure was 0.602%; with `O=C(CCc1ccccc1)NNC(=O)CCc1ccccc1`, 12.4%; with `Cc1[nH]c2ccccc2c1C(=O)C(=O)NCCc1c[nH]c2ccccc12`, 15.4%.
For the molecule `O=C(Cn1cnc2c(cnn2-c2ccccc2)c1=O)NCCc1ccccc1`, the “hERG current change (%, negative = inhibition) at 1uM” value amounted to 10.3%.
Regarding `Cc1cc(-n2c(C)cc(C(=O)CSc3nncn3C(C)C)c2C)no1`, the “hERG current change (%, negative = inhibition) at 1uM” value was found to be 11.6%.
With `CC1CCc2sc(C(=O)Nc3ccc(N4CCOCC4)cc3)cc2C1` (stereo not shown) the figure was 12.9%.
